Test results reported in PMC4336329 (PLoS ONE, 2015).
Among all 310,000 compounds or so, about 14,000 (4.5%) showed an effect of 50% or more. Effects have a minus sign here. Some of the results follow.

The compounds below were run against human ether-à-go-go-related gene (hERG) potassium channel (human, UniProt Q12809) (assay: primary screen, population patch clamp on CHO cells stably expressing hERG).
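Also: peak tail current of the secondary pulse compared with the same well before compound.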

human ether-à-go-go-related gene (hERG) potassium channel, sequence (Q12809 whole entry, looked up): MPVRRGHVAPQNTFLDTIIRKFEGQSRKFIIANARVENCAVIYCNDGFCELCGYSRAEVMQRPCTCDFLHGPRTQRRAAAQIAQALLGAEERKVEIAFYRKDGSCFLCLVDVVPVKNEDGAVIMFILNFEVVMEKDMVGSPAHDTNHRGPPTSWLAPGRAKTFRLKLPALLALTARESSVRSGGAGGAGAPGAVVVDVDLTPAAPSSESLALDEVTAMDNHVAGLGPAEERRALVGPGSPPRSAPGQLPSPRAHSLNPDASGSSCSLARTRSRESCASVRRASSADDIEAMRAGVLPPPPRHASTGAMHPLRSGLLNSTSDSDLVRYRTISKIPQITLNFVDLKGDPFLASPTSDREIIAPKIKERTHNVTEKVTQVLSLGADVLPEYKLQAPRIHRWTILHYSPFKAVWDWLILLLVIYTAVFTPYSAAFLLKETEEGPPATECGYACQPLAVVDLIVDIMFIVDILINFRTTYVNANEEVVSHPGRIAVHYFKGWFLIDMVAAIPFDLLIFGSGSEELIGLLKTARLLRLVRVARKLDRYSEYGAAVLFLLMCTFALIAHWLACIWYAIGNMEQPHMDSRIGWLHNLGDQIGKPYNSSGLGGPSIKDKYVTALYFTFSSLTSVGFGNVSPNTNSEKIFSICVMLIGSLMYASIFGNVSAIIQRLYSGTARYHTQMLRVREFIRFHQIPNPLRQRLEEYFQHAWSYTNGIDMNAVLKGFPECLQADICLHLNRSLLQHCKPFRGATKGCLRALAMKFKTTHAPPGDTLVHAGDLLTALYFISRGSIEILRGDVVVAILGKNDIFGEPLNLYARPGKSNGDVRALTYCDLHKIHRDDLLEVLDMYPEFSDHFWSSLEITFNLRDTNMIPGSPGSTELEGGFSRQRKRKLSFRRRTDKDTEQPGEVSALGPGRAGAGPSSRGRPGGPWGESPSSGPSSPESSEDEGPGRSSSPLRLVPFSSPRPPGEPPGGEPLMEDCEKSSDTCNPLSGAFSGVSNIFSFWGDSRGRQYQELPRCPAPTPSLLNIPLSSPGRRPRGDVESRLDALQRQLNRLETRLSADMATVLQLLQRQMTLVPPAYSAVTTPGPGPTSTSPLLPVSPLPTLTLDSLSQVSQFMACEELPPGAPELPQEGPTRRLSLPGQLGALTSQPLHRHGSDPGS

Row | SMILES | hERG current change (%, negative = inhibition) at 10uM
1 | CCC(C)C(NC(=O)c1ccccc1NC(=O)c1ccccc1)C(=O)N1CCOCC1 (centres unmarked) | 7.47%
2 | O=C(CSc1nnc2scc(-c3ccc(Cl)cc3)n12)NCc1ccc2c(c1)OCO2 | -23.2%
3 | O=C(c1ccc(Br)cc1)C12CN3CN(CN(C3)C1)C2 | 49.6%
4 | CCCn1nc(C(=O)NNC(=O)c2cccc(S(=O)(=O)NC(C)C)c2)c2ccccc2c1=O | 6.09%
5 | CCOC(=O)c1cccc(N2C(=O)C3C(C2=O)C2C=CC3C23CC3)c1 (centres unmarked) | -0.00282%
6 | COC(=O)c1ccccc1NC(=O)CNC(=O)c1ccco1 | 19.3%
7 | CC(CCc1ccccc1)NC(=O)CN1CCN(Cc2ccc(Cl)cc2)C1=O (centres unmarked) | -53.2%
8 | O=C(c1ccc(S(=O)(=O)N2CCCC2)cc1)N1CCN(c2ccccc2F)CC1 | 18.8%
9 | O=C(CSc1nnc(-c2ccccc2F)o1)OCc1ccccc1 | 5.34%
10 | Cc1ccc(-n2nc3c(c2NC(=O)/C=C\c2ccc4c(c2)OCO4)CSC3)cc1 | 4.46%
11 | O=C1CCC(C(=O)Nc2cccc(Oc3ccccc3)c2)=NN1 | -10.5%
12 | CC(=O)Nc1ccc(C(=O)N/N=C/c2ccccc2OCc2ccccc2)cc1 | 29.2%
13 | Cc1ccc(S(=O)(=O)NCCC(=O)NNC(=O)COc2ccc(Br)cc2)cc1C | 5.27%
14 | COc1ccc(C(=O)/C=C/c2ccc(O)cc2)cc1 | -9.87%
15 | Cc1ccc(C)c(-n2cc(CNC(C)Cn3cncn3)c(-c3ccccc3)n2)c1 (centres unmarked) | -45.6%
16 | CC(C)(C)CN1CCN(Cc2nc(-c3ccc(F)cc3)cs2)CC1CCO (centres unmarked) | -62.5%
17 | O=C(Nc1ccccc1Cl)c1ccc(=O)[nH]n1 | 8.03%
18 | COc1cccc(N2CCc3c(C)nc4ccc(Cl)cc4c32)c1 | -72.9%
19 | COc1ccc(CN2CC(C(=O)NCCCN3CCCCC3)CC2=O)cc1 (centres unmarked) | -10.7%

Row | SMILES | hERG current change (%, negative = inhibition) at 10uM
20 | CCOC(=O)C1=C(O)/C(=C\c2sccc2C)N=C1C | 4.53%
21 | COc1ccc(S(=O)(=O)N(C)C)cc1NC(=O)Cc1cccs1 | -6.99%
22 | Cc1ccc(S(=O)(=O)NNC(=O)NC23CC4CC(CC(C4)C2)C3)cc1 | -3.89%
23 | O=C(Nc1ccccc1)N1CCSc2ccccc21 | -15.9%
24 | Cc1cccc(Cc2nnc(CCC(=O)N(C)C3CCOC3)o2)c1 (centres unmarked) | 18.6%
25 | CC(C)=Cc1oc2ccc([N+](=O)[O-])cc2c1N1CC(C)OC(C)C1 (centres unmarked) | 18.7%
26 | Cc1ccccc1NC(=O)c1ccc(Nc2c([N+](=O)[O-])cc([N+](=O)[O-])c3ccccc23)cc1 | 9.29%
27 | Cc1c(C)n2c(SCC(=O)NCc3ccc4c(c3)OCO4)nnc2[nH]c1=O | 7.88%
28 | N/C(COc1ccccc1)=N\NS(=O)(=O)c1ccccc1 | 10.6%
29 | NC1=NC(=O)/C(=C\c2ccsc2)S1 | 9.97%
30 | CCOC(=O)N1CCN(C(=O)CSCC(=O)Nc2nc(-c3cccs3)cs2)CC1 | -31.4%
31 | COc1ccc(C(=O)c2cc([N+](=O)[O-])ccc2N2CCN(C)CC2)cc1 | -58.2%
32 | COc1cc(C(=O)OCC(=O)NC(=O)C2CCCCC2)ccc1OC(F)F | 15.8%
33 | Cc1cc(C)c(C#N)c(SC(F)F)n1 | -2.52%
34 | O=C(NCc1ccc(F)cc1)C1CCC(CNc2c(N3CCCCC3)c(=O)c2=O)CC1 (centres unmarked) | 17%
35 | NS(=O)(=O)c1ccc(CNC(=O)CCSCCC(=O)NCc2ccc(S(N)(=O)=O)cc2)cc1 | 12.5%
36 | CC(=O)O[C@H]1C(=O)[C@]2(C)[C@H]([C@H](OC(=O)c3ccccc3)[C@]3(O)C[C@H](OC(=O)[C@H](O)[C@@H](NC(=O)c4ccccc4)c4ccccc4)C(C)=C1C3(C)C)[C@]1(OC(C)=O)CO[C@@H]1C[C@@H]2O | -38.8%
37 | COc1cccc(NC(=O)c2ccc(-n3cnnn3)cc2)c1 | 5.31%
38 | Cc1cccn2c(NC(=O)c3cccs3)c(-c3ccccc3)nc12 | -3.77%

Row | SMILES | hERG current change (%, negative = inhibition) at 10uM
39 | CN(C)CCCOc1nn(Cc2ccccc2)c2ccccc12.Cl | -39.5%
40 | COc1ccc(NC(=S)Nc2ccccc2)c(OC)c1 | 12.4%
41 | COc1ccc(C(=O)Nc2cccc(/C=C/c3nc4ccccc4c(=O)[nH]3)c2)cc1 | -28.2%
42 | O=C(NC1CCCC1)C1CCC(=O)N1C1CCCC1 (centres unmarked) | 11.9%
43 | CC(C)CC(NC(N)=O)C(=O)Nc1ccc2c(c1)OCO2 (centres unmarked) | 25%
44 | CSc1nc(Nc2ccc(Cl)cc2)c(C#N)c(=O)[nH]1 | 18.3%
45 | COc1ccc(S(N)(=O)=O)cc1C(=O)OCCCOc1ccc(F)cc1 | -37.7%
46 | Cc1ccc2c(c1)C1(C)C(C(C)(C)N2C=O)C1(Cl)Cl (centres unmarked) | 6.91%
47 | CCCCC(c1nnnn1C1CCCC1)N1CCN(C2CCCCC2)CC1 (centres unmarked) | -69.8%
48 | CCn1nc(NC(=O)c2cccnc2)c2cc3cccc(C)c3nc21 | 2.93%
49 | Cn1cccc1-c1cc(C(=O)N/N=C/c2ccc([N+](=O)[O-])cc2)[nH]n1 | -24.2%
50 | CCCCC(=O)Nc1ccccc1C(=O)OCC(=O)c1ccc2c(c1)OCCO2 | -3.68%
51 | Nc1nc2c(s1)C(=O)CC(c1ccccc1)C2 (centres unmarked) | 15.2%
52 | Cc1cc(C(=O)N/N=C/c2cccnc2)n[nH]1 | 11%
53 | O=C(NCCCNC(=O)c1c(Cl)cccc1Cl)c1c(Cl)cccc1Cl | 17.8%
54 | Cc1ccc(CNC(=O)c2ccc(Br)o2)cc1 | -18%
55 | Cc1nnsc1C(=O)NNc1ccc(Cl)cc1 | -0.343%
56 | Cc1ccc2c(NC(=O)C3CC3)cccc2n1 | 0.836%
